Test results: the supplement of paper PMC3334620
Over roughly 33,000 sequences, “E-score (-0.5 to 0.5)” has its median near -0.012; the highest 2% begin near 0.29. This is one part of the list.

Target: T1, Ybr033w (UniProt P38073)
T1 sequence: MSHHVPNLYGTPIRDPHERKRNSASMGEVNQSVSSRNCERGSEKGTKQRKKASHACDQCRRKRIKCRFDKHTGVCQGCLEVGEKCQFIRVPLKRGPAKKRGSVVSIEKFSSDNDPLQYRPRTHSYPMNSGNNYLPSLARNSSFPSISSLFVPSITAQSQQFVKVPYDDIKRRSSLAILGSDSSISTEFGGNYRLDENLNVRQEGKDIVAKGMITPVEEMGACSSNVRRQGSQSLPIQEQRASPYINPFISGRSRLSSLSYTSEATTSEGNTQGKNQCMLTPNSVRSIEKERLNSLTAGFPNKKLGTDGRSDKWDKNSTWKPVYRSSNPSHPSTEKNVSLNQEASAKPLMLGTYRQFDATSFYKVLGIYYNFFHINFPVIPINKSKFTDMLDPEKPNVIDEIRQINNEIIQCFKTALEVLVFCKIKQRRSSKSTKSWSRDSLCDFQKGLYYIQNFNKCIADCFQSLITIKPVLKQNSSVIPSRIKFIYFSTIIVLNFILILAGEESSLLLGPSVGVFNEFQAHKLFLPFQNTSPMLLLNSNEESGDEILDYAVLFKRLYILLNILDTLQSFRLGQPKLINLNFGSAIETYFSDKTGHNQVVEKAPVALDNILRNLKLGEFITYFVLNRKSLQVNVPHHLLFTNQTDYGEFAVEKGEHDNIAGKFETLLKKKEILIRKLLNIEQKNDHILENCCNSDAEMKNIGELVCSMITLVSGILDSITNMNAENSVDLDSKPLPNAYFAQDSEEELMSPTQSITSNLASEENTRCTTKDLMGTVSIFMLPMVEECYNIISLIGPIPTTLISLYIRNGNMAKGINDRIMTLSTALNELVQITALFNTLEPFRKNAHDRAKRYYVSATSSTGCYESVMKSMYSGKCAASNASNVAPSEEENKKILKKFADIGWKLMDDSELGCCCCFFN
Assay: PBM E-score (8-mer binding enrichment) (E-score (-0.5 to 0.5)); higher = stronger / more preferred TF binding; most listed sequences are background and not binding sites
Settings: protein concentration: 200 nM; construct: GST-full length
Procedure, shortened: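 Detection of bound protein used fluorescent anti-GST, with scans normalised by masliner. The proteins were GST-tagged yeast transcription factors applied at about 100-200 nM to universal all-10-mer Agilent arrays made double-stranded by primer extension. Each ungapped eight-base word, pooled with its reverse complement, was scored with an E-score from the Universal PBM Analysis Suite.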

Sequence	PBM E-score
AGCCTTAG	-0.134
GATTGAAA	0.074
CCTCAGAG	-0.308
CCCGTGCA	-0.251
CGACGCTA	-0.12
CTATATGC	0.183
CCGATAAG	-0.146
GATCTAGC	-0.208
AGCCGAGG	-0.0193
AATTTGAA	0.233
CTAGTATC	0.176
ACATGTTA	0.289
CATAAGCA	0.0517
TAACACCA	0.0431
AACATACT	0.187
GCTTATAA	0.147
ACCGCAGA	-0.144
TCTCGAGA	0.0301
AGATCAAT	0.169
AGGTCTAT	0.00576
AGTCAGAT	-0.00156
AACCAGCT	-0.122
CTGGAACC	-0.209
ACCCCAGG	-0.274
CTTAACGC	-0.085

Sequence	PBM E-score
CGTTGACC	0.00329
CAGCTGGC	-0.165
CCAATGGA	-0.109
GAAGCATC	-0.128
ACGACGAC	-0.16
CAGTGCGC	-0.233
ATGTGTAA	-0.0574
GCTCGTCC	0.0606
GAACATCA	0.0118
AGGCTATG	-0.279
CCAGGCGC	-0.157
GAGTTAAC	0.0643
CGTGATTA	0.0332
TTCCCAAA	0.277
CAACGCCA	-0.0806
CATGCTGA	0.0291
GCCCTATA	-0.0135
CTTGACAC	-0.117
ATCCGGCC	0.179
ACGTGCGC	-0.0698
TAAAAAGA	0.222
ATCATACG	0.116
AAGGAACG	-0.173
ATACTGAA	0.179
AACACCTG	-0.0978

Sequence	PBM E-score
AGCCGCCG	-0.0472
GTTCTGTA	0.168
CATACTGG	-0.156
ATACGAGC	0.162
AGAACATA	0.192
ACTTCAGG	0.0321
CAGGCTCG	-0.175
CTAACTAC	0.0343
GTCCCAAA	-0.00725
TCACGTGA	-0.117
GCGACTCA	-0.174
GAAAATTA	0.331
GGAACAAA	0.45
GTAGGACA	0.012
CCGACGGA	-0.0926
CATTTGAC	0.0203
ACGGCAAT	0.206
CTTGAGCA	-0.212
CTCGTGCA	0.0586
CGGAATCC	-0.0202
AATCCATA	0.139
CGCGATAC	-0.169
ACAACGGG	-0.0461
GCTTACTA	0.0994
AGAATCAC	-0.0247

Sequence	PBM E-score
CCACGTCG	-0.196
ACTCACCG	-0.0441
CCAGGCTA	-0.304
CGACTAGA	-0.0452
ACCAGGAC	-0.0574
ACAAGAAA	0.206
AGAATGAG	0.178
AGGCGAGA	-0.184
CGTAGGAC	-0.112
CCTTTCTA	0.071
GACACAAA	0.0738
ATCTGTTG	-0.0271
TGAGACCA	-0.104
CACGTTAA	0.0341
GCGCTATA	0.152
AGCTGCGG	-0.223
ACAGATCG	-0.0216
AAGCCTAG	-0.032
CTGCACGC	-0.282
AAAGCTCA	0.115
AGACAATC	0.0819
AGTCCCGG	-0.338
CTTAACAA	0.152
GAAACCCA	0.212
ACAATGGG	0.154

Sequence	PBM E-score
GCGCTCAC	-0.0712
CGTCTGTA	-0.11
AGTATAAA	0.266
ATGGGCAC	-0.096
AGGATGAA	0.187
GAGCGGGC	-0.275
CTAGGACC	-0.306
AGTAGAGA	-0.0766
CCCGACAA	0.0665
TACCGGAA	0.27
CTCGGTAC	-0.157
CCCGCGTA	-0.135
ACTCAACC	0.12
GCCGGCCA	-0.0303
ACCCCAAT	-0.235
AATTCCGG	0.154
AGTCAGTC	-0.176
GAGCTAAC	0.0972
CCCATCCA	-0.158
CGATGCCG	-0.278
CGAGCGGC	0.0102
CAAAGCAA	0.0872
GCTCCTCA	-0.246
ATAATTTC	0.314
AGTCAGTA	0.118

Sequence	PBM E-score
ATCCTATC	0.153
GTGAGACA	-0.0622
GCCAAACC	-0.233
AGTCCTTC	-0.261
ATAGGAAA	0.25
CCGAAGAA	0.0583
ACGAACCC	-0.0974
TATACTCA	0.156
TCGGACAA	0.205
ATGGTCCA	-0.176
GACATCGC	-0.225
ATAAGGTG	0.0884
CGTGCATA	-0.00113
TTAGATAA	0.218
CCCCATCC	-0.119
CACAAAAC	0.235
GAATTATC	0.305
AATCACGA	-0.272
CAACAGTC	-0.0223
CGGTTTCC	-0.0941
CTCGTATC	0.0502
AGGTACAT	0.0626
CCCTAGGA	-0.2
TCTGTCAA	0.0913
CTGTCTGA	-0.197

Sequence	PBM E-score
ATGTCCGC	-0.0425
AGTGCTAC	-0.0555
CAATAACA	0.066
CCAAGGAC	-0.181
CAAGCTGC	-0.186
AGAATTGC	0.124
TGAGCAAA	0.0518
TCGATCAA	-0.0721
AGAACGCA	0.0305
CCGGCGTC	-0.131
ACCGCATA	0.0633
AGTTGACA	0.179
CAATATAC	0.0977
CTCGCGTC	0.0487
ACACCGAT	-0.185
ACAGACAC	0.00371
GCTCATCA	-0.00535
CCTACATC	0.0261
GCCATCCC	-0.232
CGTGCTTA	0.103
ACTATTCT	-0.0961
GGTATGAA	0.179
AAGATTGC	0.211
CTGCGTGA	0.0319
GGGTTGCA	-0.0638

Sequence	PBM E-score
CGGTATTC	0.0714
CCAGATAG	-0.0173
AAAGTTAT	0.273
ATGGAGAC	0.00234
ATTATATC	0.256
CTCGAGTC	-0.149
CATGCACC	-0.134
GAGCCCAA	0.0706
TACTAGAA	0.201
GGTTAGAA	-0.173
ATCTCGTA	0.0387
GCTAGCTA	-0.0365
CGAGGTGC	0.0309
AACGGAGT	0.17
ACGTAAGC	-0.0026
CGAAATAC	0.216
GTTGCGTA	0.0664
AAGCTATA	0.0695
CAAGGGTC	-0.0781
GGCTCTAA	0.0469
AGCAAATA	0.175
CAGCCATG	-0.186
CCCGCTTA	-0.0644
GCAGCTCC	-0.21
AGGTCAAG	-0.164

Sequence	PBM E-score
CGTAACGC	-0.0436
CTTTTATC	0.232
GAAACTCC	-0.0705
CTTGTCCC	-0.107
ATTTCGAA	0.203
GGTGAAAC	-0.0036
AGTAAGAC	-0.00585
ACATGACC	-0.186
GTACGAGA	0.0385
TCAGATCA	-0.0206
GGTTAAGA	0.0725
ACGCAGAG	-0.047
CAGGCGAC	-0.244
AATGCTAA	0.134
GGCGATTA	-0.0414
AGCAAAGG	-0.0121
AGTGTGGG	-0.0564
CCCACCGA	-0.0552
GGCAGATA	-0.0416
